Laboratory results published in PubChem BioAssay AID602310 (National Center for Advancing Translational Sciences (NCATS), 2012).
Screen size: about 410,000 compounds; about 310 (0.076%) were called active. The inconclusive results got no clear call from the source; some entries with a clear call stand among them for comparison. Calls come from the whole dose curve; as a rule, active = well fitted curve in the direction sought with a large enough effect; inconclusive = small, poorly fitted or top-dose-only effect; inactive = flat fitted curve, though single readings scatter. A potency beside an inconclusive call is a rough fit, not a confirmed value.

biological target: DNA dC->dU-editing enzyme APOBEC-3G (Homo sapiens) (UniProt Q9HC16); test: qHTS for Inhibitors of Vif-A3G Interactions: qHTS; settings: HeLa A3G-eYFP + Vif (tagged APOBEC3G with the HIV-1 protein that degrades it), YFP fluorescence, overnight; series mostly up to 46.1 µM; activity, negative = active: at the top concentration; note: nearly all actives have a fitted effect of over 60% in size;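 for activity, negative = active: hits raise eYFP signal because A3G escapes Vif-driven loss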
UniProt Q9HC16, sequence (Q9HC16 whole entry, looked up): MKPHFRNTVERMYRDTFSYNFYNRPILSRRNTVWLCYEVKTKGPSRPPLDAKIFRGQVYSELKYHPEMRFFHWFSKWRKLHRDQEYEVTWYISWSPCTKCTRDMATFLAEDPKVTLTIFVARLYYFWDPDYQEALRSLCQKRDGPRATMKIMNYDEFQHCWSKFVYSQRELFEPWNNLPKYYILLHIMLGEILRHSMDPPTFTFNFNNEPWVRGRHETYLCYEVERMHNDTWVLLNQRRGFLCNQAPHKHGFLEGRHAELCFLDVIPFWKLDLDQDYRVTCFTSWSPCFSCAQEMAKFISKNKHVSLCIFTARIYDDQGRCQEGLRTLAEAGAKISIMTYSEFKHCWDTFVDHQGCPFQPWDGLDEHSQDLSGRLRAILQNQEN
Method in brief: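 Read-out is eYFP fluorescence (Ex 488/Em 500-530) from Vif-expressing HeLa A3G-eYFP cells; more signal means A3G escaped Vif-mediated degradation. Cells plated overnight, compound pinned in, incubated overnight at 37 deg C.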
% is set by controls: 0 for no effect and ±100 for the full control effect; potency is the fitted concentration of half-maximal effect; tags give direction and shape of the fitted curve.

Compound | Potency | activity, negative = active
O=c1oc2c(-c3cccc(F)c3)cc(O)cc2s1 | inconclusive: 22.4 µM [inhibitor, single point] | 
CC1=C(C(=O)Nc2cccc(F)c2)C(c2ccsc2)C2=C(CC(C)(C)CC2=O)N1 (stereo unspecified) | inconclusive: 7.08 µM [inhibitor, partial curve, poor fit] | 
CCCC[n+]1ccn(-c2nc3ccccc3nc2[N-]S(=O)(=O)c2cccs2)c1 |  | inactive: -0.472%
CN(C)CCCN(C(=O)c1ccco1)c1nc2cc3c(cc2s1)OCO3 |  | inactive: -4.37%
CCn1cc([N+](=O)[O-])c(C(=O)Nc2nc(-c3ccc(C)cc3)c(C)s2)n1 | inconclusive: 15.8 µM [inhibitor, single point] | 
CCOC(=O)c1ccc(Nc2nc3nonc3nc2Nc2cccc(C)c2C)cc1 |  | inactive: 12.8%
Oc1ccc2ccccc2c1/C=N/Nc1nnc(-c2ncc[nH]2)c2ccccc12 | inconclusive: 35.5 µM [inhibitor, single point] | 
CCCc1nn2c(=O)cc(COC(=O)c3cccs3)nc2s1 |  | inactive: 0.595%
COc1cc(C2C(C#N)=C(N)Oc3cc(N(C)C)ccc32)cc2c1OCO2 (stereo unspecified) | inconclusive: 28.2 µM [inhibitor, partial curve, poor fit] | 
COc1ccc2cc(C(C)C(=O)N3CCC(C)CC3)ccc2c1 (stereo unspecified) | inconclusive: 22.4 µM [inhibitor, single point] | 
COc1ccc(NC(=O)C(=O)NCCO)cc1Cl | inconclusive: 5.62 µM [inhibitor, single point] | 
O=c1oc2ccccc2c(Nc2ccc(F)cc2)c1[N+](=O)[O-] | inconclusive: 15.8 µM [inhibitor, single point] | 
Cc1cccc(C2c3[nH]c4ccccc4c3CCN2C(=O)c2ccc(=O)[nH]c2)n1 (stereo unspecified) |  | inactive: -0.829%
Cc1cccc(N2CCN(C(=O)C3CCN(S(=O)(=O)c4ccc5c(c4)oc(=O)n5C)CC3)CC2)c1C |  | inactive: 3.73%
Cc1cccc(N2C(=O)c3cccc4c(N(C)CCO)ccc(c34)C2=O)c1 | inconclusive: 3.16 µM [inhibitor, partial curve, poor fit] | 
Cc1coc2cc3oc(=O)c(CC(=O)NCc4ccccc4)c(C)c3cc12 | inconclusive: 4.47 µM [inhibitor, full curve, poor fit] | 
COc1cc(/C=C/C(=O)OCC(=O)Nc2ccc3c(c2)OCCO3)ccc1O | inconclusive: 35.5 µM [inhibitor, single point] | 
Cc1ccc(C(=O)COC(=O)CNC(=O)Cc2ccccc2)cc1[N+](=O)[O-] |  | inactive: -5.51%
COc1cccc(-c2cnc(NCc3ccccc3Cl)n2C)c1 | inconclusive: 20 µM [inhibitor, single point] | 
COc1ccc(-n2nnnc2/C=C\Nc2ccccc2C(=O)c2ccccc2)cc1 | inconclusive: 3.16 µM [inhibitor, full curve] | 
O=C(NCc1ccco1)c1cccc2c1C(=O)c1ccc(/C=C/c3ccccc3)cc1S2(=O)=O | inconclusive: 25.1 µM [inhibitor, single point] | 
ClCc1nnc(-c2cc3c(s2)CCCC3)o1 | inconclusive: 35.5 µM [inhibitor, single point] | 
CC(=O)c1cccc(NC(=O)CNC(=O)c2sc3ccccc3c2Cl)c1 | inconclusive: 22.4 µM [inhibitor, single point] | 

Compound | Potency | activity, negative = active
NS(=O)(=O)c1cccc(NC(=O)c2ccccc2NS(=O)(=O)c2ccc(F)cc2)c1 |  | inactive: 1.07%
CCOC(=O)c1c2c(n(Cc3ccccc3)c1C)C(=O)C(=O)c1ccccc1-2 |  | inactive: -11.8%
Cc1cc(/C=N/NC(=O)c2cc3ccccc3o2)c(C)n1C | inconclusive: 12.6 µM [inhibitor, partial curve, poor fit] | 
N#CC1=C2SCN(Cc3ccco3)CN2C(=O)CC1c1ccccc1F (stereo unspecified) |  | inactive: 1.88%
COc1ccc(-c2cnc3c(NC=O)cc(-c4ccoc4)cn23)cc1OC | inconclusive: 7.08 µM [inhibitor, full curve] | 
N#C/C(=C\c1ccco1)Sc1nc2ccccc2s1 | inconclusive: 25.1 µM [inhibitor, single point] | 
CN(C)C(=O)CSc1cccc2cccnc12 | inconclusive: 10 µM [inhibitor, partial curve] | 
CC(N=Cc1cccc(O)c1O)c1ccccc1 (stereo unspecified) |  | inactive: 1.12%
FC(F)(Cl)c1nnc2ccc(Cl)nn12 | inconclusive: 10 µM [inhibitor, partial curve, poor fit] | 
CC(C)CNC(=S)N(Cc1ccco1)Cc1cc2cc3c(cc2[nH]c1=O)OCCO3 | inconclusive: 15.8 µM [inhibitor, single point] | 
OC(c1ccco1)c1nc(-c2cccs2)cs1 (stereo unspecified) |  | inactive: 1.14%
OC(COC(c1ccc(F)cc1)c1ccc(F)cc1)CN1CCc2ccccc2C1 (stereo unspecified) | inconclusive: 20 µM [inhibitor, single point] | 
CC1=C(C(=O)Nc2ccccc2)C(c2ccccn2)n2nc(SCc3ccccc3)nc2N1 (stereo unspecified) |  | inactive: 0.521%
O=C(O)c1ccc(/C=C2\SC(=S)N(Nc3ccccc3)C2=O)cc1 |  | inactive: -3.74%
N#CCCn1c(SCC(=O)NCC2CCCO2)nc2ccccc21 (stereo unspecified) |  | inactive: 0.879%
Cn1c(=S)oc2ccccc21 |  | inactive: 0.523%
O=C(N/N=C/c1ccccn1)c1cc(-c2ccc(Cl)cc2)nc2ccccc12 | inconclusive: 15.8 µM [inhibitor, single point] | 
O=C(NNc1nc2c(F)cccc2s1)c1cc(=O)c2ccccc2o1 | inconclusive: 35.5 µM [inhibitor, single point] | 
COc1cc(OC)c2c(-c3cccc(-c4ccc(C#N)cc4)c3)cc(=O)oc2c1 | inconclusive: 1.26 µM [inhibitor, full curve, poor fit] | 
CCOc1ccc(N(CC(=O)Nc2ccccc2OCC)S(=O)(=O)c2c(C)noc2C)cc1 | inconclusive: 0.562 µM [inhibitor, full curve, poor fit] | 
Cc1ccc(/C=C2/CNC/C(=C/c3ccc(C)cc3)C2=O)cc1 | inconclusive: 4.47 µM [inhibitor, full curve] | 
Nc1ccc(O)c2c1C(=O)c1ccccc1C2=O |  | inactive: 3.38%
CC(=O)NS(=O)(=O)c1cccnc1Nc1cccc(Cl)c1 |  | inactive: 0.103%
